In the supplement of paper PMC12645437, “Orthogonal IMiD-Degron Pairs Induce Selective Protein Degradation in Cells” (ACS Chemical Biology, 2025):
The list shows a part of the results.

molecular target: no compound (DMSO); test: log2 fold change of degron read counts, EGFP-low vs EGFP+ sorted cells; higher = lower degron-EGFP level without compound (poor expression or instability); conditions: compound: DMSO control; 18 h
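Note: jurkat cells carrying a lentiviral library of mutant zinc finger degrons fused to EGFP plus mCherry, mCherry+ cells FACS sorted, degron abundance counted by next-generation sequencing.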

| Sequence | log2 fold change of degron read counts |
| --- | --- |
| FKCNICGASFTQKGNLLRHIKL | -0.227 |
| FYCEICGAWFTQKGNLLRHIKL | -0.085 |
| FCCPICGRYFTQKGNLLRHIKL | 0.442 |
| FNCEICGHGFTQKGNLLRHIKL | -0.634 |
| FTCPICGAQFTQKGNLLRHIKL | -0.366 |
| FLCNQCGRKFTQKGNLLRHIKL | -0.503 |
| FICPICGRRFTQKGNLLRHIKL | -0.104 |
| FWCEICGHQFTQKGNLLRHIKL | -0.431 |
| FNCDQCGANFTQKGNLLRHIKL | -2.74 |
| FQCPICGASFTQKGNLLRHIKL | -0.299 |
| LVCPICGFPCTQKGNLLRHIKL | 1.8 |
| FFCEVCGAPFTQKGNLLRHIKL | -0.729 |
| FTCEICGAEFTQKGNLLRHIKL | -2.11 |
| FCCEICGRAFTQKGNLLRHIKL | -1.69 |
| LACPICGFGCTQKGNLLRHIKL | 0.859 |
| LCCNQCGFRCTQKGNLLRHIKL | 0.55 |

| Sequence | log2 fold change of degron read counts |
| --- | --- |
| FICDICGALFTQKGNLLRHIKL | -0.119 |
| LICEICGFDCTQKGNLLRHIKL | -0.474 |
| LNCEICGFPCTQKGNLLRHIKL | 0.133 |
| FLCPICGRFFTQKGNLLRHIKL | 1.07 |
| FDCEVCGAGFTQKGNLLRHIKL | -0.913 |
| LFCNQCGFNCTQKGNLLRHIKL | 0.647 |
| FYCDICGACFTQKGNLLRHIKL | -0.311 |
| FSCNQCGAQFTQKGNLLRHIKL | -0.699 |
| FRCDQCGATFTQKGNLLRHIKL | -1.26 |
| FSCDICGAMFTQKGNLLRHIKL | -0.0651 |
| FSCDQCGANFTQKGNLLRHIKL | -1.48 |
| FLCPICGADFTQKGNLLRHIKL | -0.0975 |
| FKCEICGRWFTQKGNLLRHIKL | -1.11 |
| FKCPQCGAFFTQKGNLLRHIKL | -0.579 |
| FWCPICGACFTQKGNLLRHIKL | 1.43 |
| FSCNICGAQFTQKGNLLRHIKL | -0.596 |
